Measured values: the supplement of paper PMC10126150
Sequences with one replicate were seen in a single cluster, so their values are uncertain.

system: ATP; assay: switch fluorescence ratio, 500 uM ATP over buffer (Cy3 cluster intensity, sum of 5 cycles each) (fold (ratio)); higher = stronger signal-on switching upon ATP binding; sequences stand for … in TCGTCGGCAGCGTCAGATGTGTATAAGAGACAGTTTTTTTTTTTTTTTTTTTTTTTTT…TC; conditions: aptamer strand: ATP DNA aptamer (quencher-CACCTGGGGGAGTATTGCGGAGGAAGG + anchor), 100 nM annealed; ATP concentration: 500 uM; one replicate
In short: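 Values give the fluorescence ratio for each switch-domain sequence, averaged from per-cluster ratios of summed target-cycle to summed buffer-cycle Cy3 intensity. The Cy3-labelled switching-strand clusters sat on a modified Illumina MiSeq flow-cell, were annealed to 100 nM quencher-labelled ATP aptamer, and were imaged in selection buffer, then after 15 min with 500 uM ATP at 22 °C. Five cycles ran with NaOH stripping and re-annealing between them, and clusters outside 100-1000 RFU were excluded.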
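Note: ATP exposure 15 min at 22 °C before imaging.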

Row | Sequence | switch fluorescence ratio
1 | ATTGAGGGAA | 0.999
2 | CCTTATACAG | 1.02
3 | ACATCTGGAA | 1.06
4 | AAAGGACTGG | 1.02
5 | TGCAGGTTGC | 0.942
6 | CTGGGTGTTA | 1.03
7 | TACCGCCAGC | 1.43
8 | ATGACCTTAC | 3.36
9 | GCAAGTCAAC | 1.11
10 | TGGTCCGCAC | 5.24
11 | TGAAGGTCAG | 1.01
12 | GGACGCAAAT | 2.6
13 | TCTGCTCGGG | 0.975
14 | ACGTTATCGT | 1.07
15 | AAACTCCAGC | 1.1
16 | TTTATCTAGC | 1
17 | ATCGGTGGTC | 1.01
18 | AGCCCTAGGG | 1.01
19 | AGGTCAGTGA | 0.993
20 | AAAGGTTAGT | 1.01
21 | AAGTCATGA | 1.01
22 | AGACAGCTTC | 1.02
23 | GTCTCTTCGG | 0.986
24 | TAAGCCCTG | 0.997
25 | GAGTCCTAGC | 0.976
26 | CTTATTTTAT | 0.984

Row | Sequence | switch fluorescence ratio
27 | TTGAGCTCCG | 1.03
28 | CTTCCGGAGT | 5.63
29 | GGAGTAAGT | 0.976
30 | TATGCCAGGA | 0.958
31 | TCCGAGAAGG | 1.1
32 | TCTGTGAGCT | 0.996
33 | CACTCACATC | 1.29
34 | GGGTGTGTCC | 0.98
35 | GCACCTCATT | 1.03
36 | CACAATTTTC | 1.06
37 | AGTGATTTTT | 1.19
38 | CTAATCAGGG | 1.02
39 | CTATAAGTTC | 0.98
40 | GCTGTGACTG | 0.99
41 | TGGAGACGTG | 0.998
42 | AATCAGGAT | 0.978
43 | ACAACAATCG | 0.996
44 | ATGTACGGTG | 1.09
45 | AAGCTTTGCC | 0.962
46 | CATCGGGTCA | 0.988
47 | CAGTGCTGTG | 0.987
48 | TAGGTGCGTC | 0.965
49 | CATTCATGTG | 0.971
50 | AGCGCCGGTA | 1.05
51 | GAGATACGTT | 0.945
52 | AACTGGTGGT | 0.972

Row | Sequence | switch fluorescence ratio
53 | TTCCGATAT | 2.98
54 | AGCATAGCCG | 0.994
55 | GCCGCGATTG | 1.13
56 | GACTCAACGT | 1.16
57 | GGAGTAGGT | 0.999
58 | GTTCACCCGC | 1.38
59 | AATCTGATTA | 1
60 | TTCAGCCAAC | 1.03
61 | TGAAGGGCGG | 0.989
62 | GAGGGAGGC | 1.14
63 | CTTGTTTCGG | 1.03
64 | GCTAGGGTGA | 1.08
65 | CAGCATGGGA | 1.06
66 | GTCTTGGCCG | 0.978
67 | CCGGGACGCG | 1.07
68 | GTTGCAGGAC | 1.41
69 | TACCAGATAC | 1.41
70 | CAGCTAAGCA | 1.01
71 | TTGATTTTA | 1.01
72 | TGGATCTGCA | 1.01
73 | AAATTTTAAA | 1.02
74 | TTACAATCCC | 1.05
75 | ATCATACTGC | 1.06
76 | AGTTGGCGAC | 0.984
77 | ACGGAGTAGC | 1.06
78 | CTCTAATGAC | 1.36

Row | Sequence | switch fluorescence ratio
79 | CTGATGAAGT | 0.976
80 | CTTGAAAGA | 1
81 | TAGCACGAAT | 1.4
82 | GAATATTTGT | 0.974
83 | TTCATCGCGC | 0.978
84 | ATTGCGGAGC | 1.02
85 | GTCGAAACGG | 0.99
86 | CGCCGGTCAC | 1.09
87 | GACTCGGGTG | 1.12
88 | CGCACAGGT | 2.68
89 | CGGGTATACG | 1.03
90 | TGTTTAGAA | 0.945
91 | GACTAGATTG | 1
92 | TTAGATGATT | 1.02
93 | CGAAGGATCC | 0.999
94 | AGTACTGTAA | 1.12
95 | AATGGAAGTC | 0.972
96 | TAAAGGCGAA | 1.03
97 | GTTGCATGTT | 0.973
98 | CACAATAGTT | 1.03
99 | TCGAGGGCTA | 1.17
100 | TAGGCCAGA | 1.01
101 | GGCTCTGCCT | 1.01
102 | AGCTTTCATC | 1.04
103 | CGCGTCAGAG | 1.02
104 | TTTAGATAGA | 0.981

Row | Sequence | switch fluorescence ratio
105 | TAATTGACCC | 1.03
106 | CTCGAGTAAT | 1.09
107 | AACGGTAGCG | 0.996
108 | TTATCACGTT | 0.981
109 | TCTTCGGTGT | 0.992
110 | CCAGCGAAGG | 1.07
111 | TATTCGACGG | 1.05
112 | GGGTTGGTGA | 0.946
113 | AGTGAAAAGC | 0.99
114 | GATAATGCAT | 0.998
115 | CATATTCGCC | 0.996
116 | CTACTCAAGC | 2.09
117 | AGGTGTTGG | 1.03
118 | CGCTCTTGAG | 0.961
119 | AACTTCTGAC | 1.44
120 | GTGTTCCGTC | 1
121 | TTACCGTCCG | 1.11
122 | AAAGACAGTA | 1.03
123 | CATGGAAGAA | 1.01
124 | ATGATAAGCG | 0.989
125 | GTCCACCGCT | 2.48
126 | GAATGCGCG | 1.05
127 | TAAACCGGAT | 1.03
128 | TTATACGGG | 1.06
129 | CCGTCGTGT | 1.09
130 | GGGTTTGTT | 0.964

Row | Sequence | switch fluorescence ratio
131 | TATCCGAGGA | 0.992
132 | ATGGCACTCC | 1.05
133 | AAAAAGCCAT | 1.14
134 | AAGAGGATTG | 0.973
135 | GCAGACTCTG | 0.984
136 | ACGATTTGT | 0.997
137 | ACGTAGCAAG | 3.51
138 | AGGCCAATCA | 0.982
139 | TTGTGTACAC | 0.957
140 | TCGGGTTAA | 1.06
141 | CGTGCAATTA | 2.33
142 | GGTTGTTA | 0.952
143 | AGCTTTTTG | 1.05
144 | CCCGACTAAG | 0.987
145 | GGCGCAAACC | 1.98
146 | CAAGGATTCG | 1.01
147 | TAGTACGCA | 1.23
148 | TATCATGGAC | 1.04
149 | CGTTTTAGCG | 1.02
150 | TTCGGCATTT | 0.993
151 | TTGGTAGACG | 1.01
152 | GTGTACTTGC | 0.987
153 | GCCATACCGC | 1.11
154 | TAGTCTTGGA | 1.02
155 | TGCGTTCGGA | 1.01
156 | TAGGCGCCCG | 0.98

Row | Sequence | switch fluorescence ratio
157 | CATGACTGGT | 0.987
158 | CTTCATGTCT | 1
159 | GCTAGATTAT | 0.987
160 | AGAGCATAAA | 1.06
161 | TATAGGGCCG | 0.994
162 | GCTAGATTGT | 0.986
163 | GATTAAAATC | 0.976
164 | TAGACCGAAA | 1.06
165 | TTACTTAATG | 1.01
166 | TGGGAACATA | 1.17
167 | TCGGCTGCAG | 1.03
168 | AACGTACACG | 1.22
169 | GGTAAGCCA | 0.963
170 | ATAGGTTGTG | 1.02
171 | CTCGTTTACA | 1.01
172 | AAACACCGCT | 1.13
173 | GATAACACC | 1.08
174 | GCATTATTGT | 1.02
175 | CATGTGGCAG | 1.01
176 | TTCACCCTGG | 1.23
177 | ATTTATAAT | 1
178 | CCCTGCTCGC | 1.63
179 | AAAAGCAGAT | 0.999
180 | GAAATTGCTT | 0.957
181 | CCTGTAGACT | 1.06
182 | GGTTAGACAT | 1

Row | Sequence | switch fluorescence ratio
183 | TCAAATACGG | 1.27
184 | GAAGTGATTC | 1.08
185 | AAGAGGCGAG | 1.01
186 | AATATGGAAG | 1.01
187 | TATGAGATCC | 1.03
188 | TGGGCGGGT | 1
189 | CAGTAAAATA | 0.978
190 | ACCGGCCGGA | 1.04
191 | CGCAGCCCCT | 2.89
192 | TAGATTGCCA | 0.999
193 | TCAACAAAGC | 0.991
194 | ACAAGAGGAG | 1.03
195 | TAGATGCAA | 0.985
196 | AGTATTGTTG | 0.974
197 | GCTAGTGTGC | 0.977
198 | AAAAGCGATA | 1.1
199 | ATTGCTAATG | 0.981
200 | CAATAATAAT | 1.02
201 | ACCTATCGCT | 1.15
